Experimental data as given in PMC4336329 (PLoS ONE, 2015).
The campaign covered roughly 310,000 compounds. About 2,200 (0.71%) showed an effect of 50% or more. Effects have a minus sign here. The list shows a part of the results.

molecular target: human ether-à-go-go-related gene (hERG) potassium channel (human, UniProt Q12809); assay: primary screen, population patch clamp on CHO cells stably expressing hERG
Sequence (Q12809 whole entry, looked up): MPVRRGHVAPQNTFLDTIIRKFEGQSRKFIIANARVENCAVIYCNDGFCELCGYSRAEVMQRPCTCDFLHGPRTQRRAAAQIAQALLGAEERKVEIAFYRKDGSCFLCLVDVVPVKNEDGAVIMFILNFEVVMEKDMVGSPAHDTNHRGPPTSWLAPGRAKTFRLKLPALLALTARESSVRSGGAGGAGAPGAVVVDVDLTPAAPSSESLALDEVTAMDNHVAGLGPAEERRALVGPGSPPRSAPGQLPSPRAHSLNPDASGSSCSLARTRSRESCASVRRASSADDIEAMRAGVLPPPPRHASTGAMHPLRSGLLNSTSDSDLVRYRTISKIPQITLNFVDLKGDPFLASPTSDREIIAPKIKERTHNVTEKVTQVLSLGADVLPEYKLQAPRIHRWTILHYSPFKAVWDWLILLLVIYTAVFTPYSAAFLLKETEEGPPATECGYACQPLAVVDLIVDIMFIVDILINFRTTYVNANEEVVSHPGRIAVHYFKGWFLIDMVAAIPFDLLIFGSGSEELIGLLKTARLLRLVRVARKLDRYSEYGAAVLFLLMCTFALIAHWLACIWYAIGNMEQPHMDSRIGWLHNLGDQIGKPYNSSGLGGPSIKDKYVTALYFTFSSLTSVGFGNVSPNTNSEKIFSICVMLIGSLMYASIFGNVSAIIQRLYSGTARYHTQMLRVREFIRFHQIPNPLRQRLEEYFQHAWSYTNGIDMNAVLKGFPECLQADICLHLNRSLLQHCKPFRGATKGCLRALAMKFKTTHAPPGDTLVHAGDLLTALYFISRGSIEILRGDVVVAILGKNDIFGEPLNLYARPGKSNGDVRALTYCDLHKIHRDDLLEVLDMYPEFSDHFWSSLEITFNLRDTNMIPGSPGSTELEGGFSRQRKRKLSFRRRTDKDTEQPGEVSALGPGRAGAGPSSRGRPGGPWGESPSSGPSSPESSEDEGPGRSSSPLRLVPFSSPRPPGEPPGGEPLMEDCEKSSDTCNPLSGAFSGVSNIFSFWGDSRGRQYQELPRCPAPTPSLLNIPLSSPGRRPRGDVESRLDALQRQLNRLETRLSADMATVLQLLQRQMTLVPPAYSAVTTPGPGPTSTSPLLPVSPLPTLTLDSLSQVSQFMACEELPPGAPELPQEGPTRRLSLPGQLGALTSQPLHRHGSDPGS

Structure (SMILES)	hERG current change (%, negative = inhibition) at 1uM [%]
CCOC(=O)N1CCN(Cc2nc(Cc3cccc(F)c3)no2)CC1	12.2
C[C@H]1CC[C@@]2(O[C@H](CCO)C[C@H](O)[C@H]2O)O1	19.7
CCCC(=O)Nc1sc2c(c1C#N)CC(C)(C)NC2(C)C	12.1
O=C(Nc1ccc2oc(-c3ccc(Cl)c(Cl)c3)nc2c1)c1ncn[nH]1	7.68
CC(OC(=O)CN1C(=O)NC(C)(C)C1=O)C(=O)c1ccccc1 (stereo not shown)	1.66
O=C(c1ccc2snnc2c1)N1CCOCC1	14.7
COc1ccc(CN2CCOCCOCCOCC2)cc1	-21.8
Cc1ccc(NC(=O)c2oc(=O)c3ccccc3c2-c2ccccc2)c(C)c1	-3.28
CC(C)c1ccc(-n2c(O)c(/C=N/NC(=O)c3ccccc3O)c(=O)[nH]c2=S)cc1	12.3
O=C(O)c1nn(CC(=O)N2CCN(S(=O)(=O)c3ccc(Cl)cc3)CC2)c(=O)c2ccccc12	7.83
CN(Cc1ccccc1)C(=O)C(=O)c1cn(CC(=O)N2CCCC2)c2ccccc12	10.1
S=c1[nH]ncn1NCc1cccc(Br)c1	11.1
C(=N\n1cnnc1)/c1ccc(N2CCOCC2)cc1	-4.52
CCC(=O)Nc1cc(=O)[nH]c2ncnn12	-8.36
Cc1cc(Oc2ccccc2)nc(OCC#N)n1	-2.96
C=C(C)C(=O)Nc1cccc(C2=NOC3(C2)C[C@@H](C(N)=O)N(C(=O)c2cc([N+](=O)[O-])cc([N+](=O)[O-])c2)C3)c1 (stereo partly shown)	5.23
COc1cccc(NC(=O)CN2C(=O)COc3ccc(Cl)cc32)c1	8.19
COc1cccc(NC(=O)/C=C/c2ccccc2[N+](=O)[O-])c1	4.18
CN=c1oc2ccc(Cl)cc2cc1C(N)=O	13
CCOC(=O)c1cc(-c2ccccc2)sc1NC(=O)CCN1C(=O)c2ccccc2C1=O	8.1
COc1ccccc1NC(=O)c1cc2n(n1)C(C(F)(F)F)CC(c1ccc3c(c1)OCO3)N2 (stereo not shown)	15.1
CCOc1ccccc1NC(=O)COC(=O)c1cnc(C)cn1	2.07
O=C(O)CC1OCC=C2CN3CCC45c6ccccc6NC4C1C2CC35 (stereo not shown)	4.73

Structure (SMILES)	hERG current change (%, negative = inhibition) at 1uM [%]
Cl.N=C(N)N=Nc1c(O)[nH]c2ccc(Br)cc12	6.02
O=C(O)COCC(=O)NC1CCN(Cc2ccccc2)CC1	16
Cc1ccc2c(CC(=O)OCC(=O)N(CC(C)C)c3c(N)n(Cc4ccccc4)c(=O)[nH]c3=O)coc2c1	6.91
NC(=S)N/N=C/c1ccc2cccc(OCc3ccccc3)c2n1	8.98
COc1ccc(NC(=O)/C=C/c2cccc(F)c2)cn1	0.502
O=C(Nc1ccc(Cl)c(Cl)c1)c1ccc2c(c1)OCO2	16.9
O=C(OCCOc1ccccc1F)c1cccc(S(=O)(=O)N2CCOCC2)c1	24.6
O=C(NC1CCCCC1)c1cc(N2C(=O)CCC2=O)ccc1Cl	13.2
Cc1nn(-c2ccccc2)c(C)c1NC(=O)COC(=O)Cc1ccccc1	2.16
CCOc1ccc(OCC)c(S(=O)(=O)NCc2cccnc2)c1	3.9
O=C(COc1ccc(S(=O)(=O)N2CCCC2)cc1)NCc1ccccn1	7.77
CCC(C)(C)C(=O)Nc1ccc(OC)cc1[N+](=O)[O-]	-11.7
COc1ccc(-c2[nH]c3ccccc3c2SCCN)cc1	5.18
CC(C)NC(=O)NC(=O)COC(=O)c1cc[n+]([O-])cc1	8.5
ONC(=Nc1ccccc1)C(=Nc1ccccc1)NO	3.23
O=C(NCCc1ccncc1)C12CC3CC(CC(C3)C1)C2	-0.276
CSc1nc2c(c(-c3ccccc3)c1C#N)CCC2	4.06
O=C(O)c1ccccc1SSc1ccccc1C(=O)O	11.2
O=C(N/N=C/c1ccc(OC(=O)c2ccco2)cc1)c1ccncc1	6.49
CN(CC(=O)Nc1ccccc1Cl)C(=O)CSC(=S)N1CCCC1	4.36
Cn1ncc(Cl)c1C(=O)N/N=C/c1ccccn1	7.14
CC(C)C(NS(=O)(=O)c1cccc2nsnc12)C(=O)N1CCCCC1 (stereo not shown)	8.75
Cc1ccc(C(=O)OCC(=O)N2CC(C)OC(C)C2)cc1 (stereo not shown)	15.5

Structure (SMILES)	hERG current change (%, negative = inhibition) at 1uM [%]
O=C1c2ccccc2C(=O)N1OCCOCCOCCON1C(=O)c2ccccc2C1=O	-2.15
CCCCCCCCCCCCN1[C@@H](CC(=O)O)c2cc(C(F)(F)F)ccc2S1(=O)=O	-11.8
CCc1ccccc1NS(=O)(=O)c1ccc(OC)c2ncccc12	14.4
CN(C(=O)c1cc(-c2ccccc2)on1)C1CCCCC1	10.5
O=C(Nc1cccc(Cl)c1)N1CCOCC1	17.8
CCNC(=S)N/N=C/c1ccc(C(=O)O)cc1	5.45
COc1ccc2oc3cc(C)[n+]([O-])c(-c4ccc(C)cc4)c3c2c1	-5.29
Cc1ccc(C)c(NC(=O)CCN2C(=O)[C@@H]3Cc4ccccc4CN3C2=O)c1	15.3
C=CCOC(=O)C1=C[C@H](C2CCCCC2)[C@@H](CCCO)[C@H](OCC)O1	9.02
Cc1ccc(S(=O)(=O)CC(=O)c2cc(C)c(O)c(C)c2)cc1	8.75
Cn1c(N=NC(=O)c2ccccc2)c(O)c2ccccc21	17.7
COc1cccc(NC(=O)Cc2nnc(SCC(=O)NC(C)c3ccccc3)n2C)c1 (stereo not shown)	13.1
CC(=O)Nc1ccc(S(=O)(=O)NCCC(=O)OCC(=O)N2CCN(C(=O)c3ccco3)CC2)cc1	5.68
O=C(CCc1ccccc1)c1nnc(-c2ccccc2)o1	0.581
O=C(CNC(=O)c1ccc2c(c1)OCCO2)N/N=C/c1cccc(Br)c1	7.03
CCCCN(CCCC)CCNC(=O)c1cn(CC)c2ccc(S(=O)(=O)N3CCCC3)cc2c1=O	-30.2
Cl.Oc1ccc(CC2(N3CCCC3)CCCCC2)cc1	18.3
CC1CCc2nn(CC(=O)NCCN3CCCCC3C)cc2C1 (stereo not shown)	0.592
COc1ccc(OC)c(NC(=S)N(CCc2c(C)[nH]c3ccccc23)Cc2cccs2)c1	5.84
CC1=C(C(=O)Nc2ccccc2C(=O)NCCCOC(C)C)SCCO1	18.8
Cc1noc(C)c1COc1ccc(C(=O)N2CCN(S(=O)(=O)c3ccc(Cl)cc3)CC2)cc1	-7.72
COc1cc(Cl)c(C)cc1NC(=O)CN(C)Cc1cccc(OC)c1OC	4.09
CCOC(=O)CNC(=O)c1ccc(Br)s1	3.66

Structure (SMILES)	hERG current change (%, negative = inhibition) at 1uM [%]
Cn1cnnc1SCC(=O)Nc1ccc2c(c1)CCC2	8.47
CC(C)CCNC(=O)NC(=O)CSc1ncccn1	16.8
COc1ccc(C/C(N)=N/n2cnnc2)cc1Cl	14.3
O=C(NCCC1=CCCCC1)C1CCC(CNS(=O)(=O)c2ccccc2)CC1 (stereo not shown)	5.85
COc1cccc(NC(=O)NCC2CCN(Cc3ccc(F)cc3)CC2)c1	-3.34
COc1ccc(S(=O)(=O)NC2CC2)cc1Cl	16.9
Cc1ccc(S(=O)(=O)NCCC(=O)N2CCCCCC2)cc1	8.69
FC(F)(F)c1cc(-c2ccccc2)nc(-n2cc(Cl)cn2)n1	14.8
COc1cc(OC)c(OC)cc1CNCC1COc2ccccc2O1.Cl (stereo not shown)	10.9
CCC1(c2ccccc2)NC(=O)N(CC(=O)Nc2ccc(S(N)(=O)=O)cc2)C1=O (stereo not shown)	13.2
O=C(COC(=O)c1cccnc1Cl)Nc1ccc(N2CCCCC2)cc1	6.18
Nc1ccc(C(=O)OCC(=O)N2CCN(C(=O)c3ccco3)CC2)cc1[N+](=O)[O-]	5.51
CC(C(=O)N1CCc2ccccc21)N1CCN(S(=O)(=O)c2cccc(C(F)(F)F)c2)CC1 (stereo not shown)	3.07
CCc1c(C(=O)Nc2nnc(C3CC3)s2)csc1C	14.2
CCc1nc(Nc2cccc(F)c2)c2oc3ccccc3c2n1.Cl	13
CCNc1ccc(C(=O)OC(C(=O)NC(N)=O)C(C)C)cc1[N+](=O)[O-] (stereo not shown)	15.1
O=C(Nc1ccc2c(c1)oc1ccc(S(=O)(=O)N3CCCC3)cc12)C1CC1	3.12
CCC(C)Oc1nc(C)cc(C)c1S(=O)(=O)c1ccccc1C (stereo not shown)	-0.993
COC(=O)[C@@]1(Cc2ccc(OC)cc2)[C@H]2c3cc(C(=O)N(C)C)[nH]c3C[C@H]2CN1C(=O)c1ccccc1	8.07
CSc1ccccc1C(=O)NC1CCCCC1	1.3
CN(CC(=O)Nc1ccc(Cl)c(C(F)(F)F)c1)C(=O)CCC(=O)c1ccccc1	4.52
CC1=C(C(=O)Nc2cccc(C)c2C)C(c2cccs2)NC(=S)N1 (stereo not shown)	7.41
